Measured values reported in PubChem BioAssay AID686979 (National Center for Advancing Translational Sciences (NCATS), 2013).
Among all 420,000 compounds or so, about 50,000 (12%) were called active. Inconclusive means that the source gave no clear call. Such entries were picked first, then a sample of the others. The call rests on the fitted dose curve; in most records, active means well fitted inhibition curve with a large enough effect; inconclusive means small, poorly fitted or top-dose-only effect; inactive means flat fitted curve, though single readings scatter. Potencies of inconclusive entries are left out as doubtful fits.

Test: qHTS for Inhibitors of human tyrosyl-DNA phosphodiesterase 1 (TDP1): qHTS in cells in presence of CPT; further: nearly all actives have a fitted effect of over 55% in size
Conditions: chicken DT40 Tdp1-/-;hTDP1 cells + 20 nM CPT, ATP luminescence, 48 h; activity change, negative = growth inhibition: at 46.2 µM (top of the series) unless noted
How it was run: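 Chicken DT40 Tdp1-/- cells stably complemented with human TDP1 were seeded at 400 cells/well in medium containing 20 nM camptothecin, exposed to pin-transferred compounds, and grown at 37 °C for at least 48 hr. Viability was read as ATP luminescence.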
On the % scale 0 is the no-effect control and ±100 the full control effect; potency means the concentration at half of the fitted maximal effect; tags describe the fitted curve by direction and shape.

| SMILES | Potency | activity change, negative = growth inhibition |
| --- | --- | --- |
| C=CCN(C(=O)c1cccc(C(F)(F)F)c1)C1(C(=O)Nc2ccccc2)CCN(C(C)C)CC1 | inconclusive [inhibitor, single point] | – |
| O=C1NC(=Nc2ccccc2)S/C1=C\c1cccs1 | inconclusive [inhibitor, single point] | – |
| CCOc1cc(-c2sc(Nc3ccccc3)n[n+]2C)ccc1OC | inconclusive [inhibitor, single point] | – |
| CC(C)(C)N(Cc1ccccc1)C(=O)COC(=O)C1CC(=O)N(Cc2ccccc2)C1 (centres undefined) | inconclusive [inhibitor, single point] | – |
| COc1cc2c(cc1NC(=O)COC(=O)C(CCSC)NC(=O)c1ccccc1Cl)oc1ccccc12 (centres undefined) | inconclusive [inhibitor, single point] | – |
| Cn1cccc1/C=N\NC(=O)Cc1ccc(Br)c2ccccc12 | active: 14.6 µM | – |
| Cc1cccc(C)c1NC(=O)C(=O)NCC1CCCN1S(=O)(=O)c1ccccc1 (centres undefined) | inconclusive [inhibitor, single point] | – |
| COc1ccc(-c2cn(-c3ccccc3)c(=S)[nH]2)cc1OC | inactive | – |
| O=C(NCc1ccccn1)C1CCN(S(=O)(=O)c2ccccc2F)CC1 | inactive | – |
| CCOc1ccc2c(C)c(C)c(=O)oc2c1OCC | inconclusive [inhibitor, single point] | – |
| CCOC(=O)c1ccccc1NC(=O)CN1C(=O)c2ccccc2S1(=O)=O | inactive | – |
| COc1ccc(C(=O)NNC2=NC(C)(C)Cc3cc(C)c(C)cc32)cc1 | inconclusive [inhibitor, single point] | – |
| Cc1ccc(NC(=O)c2oc3ccccc3c2NC(=O)Cc2ccccc2)cc1 | active: 16.4 µM | – |
| CC(C)(C)OC(=O)N1CCC(NC(=O)c2nc[nH]c2C(=O)NC2CCN(C(=O)OC(C)(C)C)CC2)CC1 | inconclusive [inhibitor, single point] | – |
| CCCCN(CC)Cc1ccc(CNC(=O)Nc2ccc(OCC)cc2)o1 | inconclusive [inhibitor, partial curve] | – |
| COc1ccc2c(c1)CCc1sc(NC(=O)c3cccc(Br)c3)nc1-2 | inconclusive [inhibitor, single point] | – |
| COc1ccccc1NC(=O)CSC1=Nc2ccccc2C2=NC(Cc3ccccc3)C(=O)N12 (centres undefined) | active: 23.1 µM | – |
| Cc1cc(C)c(NC(=O)C2CCCN(S(=O)(=O)c3c(C)noc3/C=C/N(C)C)C2)c(C)c1 (centres undefined) | inactive | – |
| O=C(Nc1cccc(S(=O)(=O)Nc2ccc(Cl)cc2)c1)c1ccc2c(c1)OCCO2 | active: 13 µM | – |
| C#Cc1ccc([C@@H]2C=C(C(=O)NCc3ccccc3)O[C@H](OCc3ccc(CO)cc3)C2)cc1 | inconclusive [inhibitor, single point] | – |
| CCOc1ccc(S(=O)(=O)N2CCN(c3cccc(C(F)(F)F)c3)CC2)cc1OCC | inconclusive [inhibitor, single point] | – |
| O=C(O)CCCCCNC(=O)OCC1c2ccccc2-c2ccccc21 | active: 4.11 µM | – |
| CCc1ccc2[nH]cc(C(=O)OCCOC)c(=O)c2c1 | inconclusive [inhibitor, single point] | – |
| Fc1ccccc1N1CC(c2ccccc2)C(c2cccs2)=N1 (centres undefined) | inactive | – |
| CC12CC(NC(=O)N1CCc1ccccc1)c1ccccc1O2 (centres undefined) | inconclusive [inhibitor, single point] | – |

| SMILES | Potency | activity change, negative = growth inhibition |
| --- | --- | --- |
| Cc1cc(C)c(C)c(OCCCCN(C)Cc2ccccc2)c1 | inconclusive [inhibitor, single point] | – |
| O=C(COc1ccccc1)Nc1ccc(F)cc1 | inactive | – |
| CC1(C)Cc2ccccc2C(c2cc3ccccc3oc2=O)=N1 | inconclusive [inhibitor, single point] | – |
| Cc1ccccc1CN(C)C(=O)COC(=O)c1ccc2[nH]c(C)c(C)c2c1 | active: 16.4 µM | – |
| O=C(NC(=S)Nc1nc(-c2ccc(Cl)cc2)cs1)c1cccs1 | inconclusive [inhibitor, single point] | – |
| CCc1nc2c(cnn2-c2ccc(C)cc2)c(=O)n1Cc1ccccc1 | inconclusive [inhibitor, single point] | – |
| CCOC(=O)/C=C/[C@H]1CC(c2ccccc2)(c2ccccc2)CO1 | inconclusive [inhibitor, single point] | – |
| O=C(Nc1ccc(N2CCCCC2)cc1)C(Cl)c1ccccc1 (centres undefined) | – | inconclusive: -31.9% [inhibitor] |
| Cc1cc(C)c(S(=O)(=O)NCC(c2ccco2)N2CCOCC2)c(C)c1 (centres undefined) | inconclusive [inhibitor, single point] | – |
| COc1ccc(NC(=O)CSc2nc3ccccc3nc2N2CCCC2)c(OC)c1 | inconclusive [inhibitor, single point] | – |
| CC1=C(C(N)=O)C(c2ccc(F)cc2)n2nc(CCCO)nc2N1 (centres undefined) | inactive | – |
| C/C(=N\NC(=O)c1nn(C)c(C)c1Br)c1ccc(NC(=O)c2ccoc2C)cc1 | inactive | – |
| CCc1ccc(NC(=O)Cn2c(=O)n(CCCCC(=O)NCc3ccccc3Cl)c(=O)c3ccccc32)cc1 | inconclusive [inhibitor, partial curve] | – |
| COc1ccc(-c2ccc(Nc3ccc(C(=O)N4CCOCC4)cc3)nn2)cc1OC | inconclusive [inhibitor, single point] | – |
| CCOC(=O)N1CCN(c2c(NCCCOC(C)C)c(=O)c2=O)CC1 | inactive | – |
| O=C(Nc1cccc(S(=O)(=O)N2CCCCC2)c1)c1ccc2c(c1)OCO2 | active: 25.9 µM | – |
| Cc1ccc(-n2c(C)cc(/C=N/NC(=O)Cn3c4ccccc4c(=O)c4ccccc43)c2C)cc1 | – | inconclusive: -30.1% [inhibitor] |
| C=CCn1c(CCSCc2ccc(OC)c(C)c2)n[nH]c1=S | inconclusive [inhibitor, single point] | – |
| COc1ccccc1-c1nnc(C2CCN(C(=O)c3cccc(C)c3)CC2)o1 | inconclusive [inhibitor, single point] | – |
| CC(C)(C)C(c1nc2ccccc2[nH]1)n1c(-c2cccc(S(C)(=O)=O)c2)nc2ccccc21 (centres undefined) | active: 10.3 µM | – |
| O=C(NCc1ccccc1)C(=O)NCC(c1ccco1)S(=O)(=O)c1ccc(Cl)cc1 (centres undefined) | active: 23.1 µM | – |
| CSc1cc(/C=N/O)c(SC)s1 | inactive | – |
| CCOc1cc(OCC)cc(C(=O)Nc2cccc(-c3nc4ccccc4[nH]3)c2)c1 | active: 10.3 µM | – |
| COc1cccc(Cn2c(=O)n(-c3cccc(Cl)c3)c(=O)c3c4c(sc32)CN(C(C)=O)CC4)c1 | inconclusive [inhibitor, single point] | – |
| C=CCC(CC=C)(CNC(=O)C(=O)Nc1ccc(C)cc1)c1ccccc1 | inactive | – |

| SMILES | Potency | activity change, negative = growth inhibition |
| --- | --- | --- |
| COc1cc(NC(=O)CN(C)S(=O)(=O)c2ccc(-c3ccc(=O)[nH]n3)s2)cc(OC)c1 | inactive | – |
| Cc1cccc(-c2noc(CCC(=O)NC3CCCCC3)n2)c1 | – | inconclusive: -35.2% [inhibitor] |
| CSC1=NC(C)(C)C=C(/C=C/c2ccc(Cl)cc2)N1 | active: 20.6 µM | – |
| Cc1ccc(-n2nc(C)c3c(C)c(CCC(=O)NCC4CCCO4)c(=O)n(C)c32)cc1 (centres undefined) | inconclusive [inhibitor, single point] | – |
| COc1ccc(NC(=O)c2cc(C)nc3c2c(C)nn3-c2ccc(C)cc2)cc1OC | inconclusive [inhibitor, single point] | – |
| COc1ccccc1CNC(=O)c1cccc(S(=O)(=O)N2CCN(C)CC2)c1 | inactive | – |
| CCCc1cc2nnc(SCC(=O)N(C)C3CCCCC3)n2c(N)n1 | inactive | – |
| O=C(Nc1nccs1)c1cc2sccc2n1Cc1ccc(Cl)cc1 | inactive | – |
| COc1ccccc1C(=O)NCCNC(=O)c1ccco1 | inconclusive [inhibitor, single point] | – |
| CCCNC(=O)Nc1ccc(C(F)(F)F)cc1 | inconclusive [inhibitor, single point] | – |
| OCC1(Cc2ccccc2)CCCN(Cc2c[nH]c3ccccc23)C1 (centres undefined) | active: 11.6 µM | – |
| Cc1ccc(Cn2c(=O)n(C)c(=O)c3sccc32)cc1 | inconclusive [inhibitor, single point] | – |
| CCC1CCCCN1Cc1ccc(OC)c(C)c1C (centres undefined) | inactive | – |
| Cc1cc(OCc2cc(C(=O)NCCN3CCCCC3CO)no2)cc(C)c1Cl (centres undefined) | inconclusive [inhibitor, single point] | – |
| CCO[C@@H]1OC(C(=O)N2CCN(Cc3ccc4c(c3)OCO4)CC2)=C[C@H](c2cn(C(C)=O)c3ccccc23)[C@H]1CCCO | inconclusive [inhibitor, single point] | – |
| CC(NC(=S)Nc1ccccc1OC(F)F)C(C)(C)C (centres undefined) | inactive | – |
| Cc1ccc(NC(=O)c2cc(N3CCOCC3)nc3ccccc23)cc1 | active: 23.1 µM | – |
| Cc1scc(C(=O)NNC(=S)NC(C)c2ccccc2)c1C (centres undefined) | active: 16.4 µM | – |
| CC(CCc1ccccc1)NC(=O)C1CCN(S(=O)(=O)c2cnc[nH]2)CC1 (centres undefined) | inactive | – |
| CC1=C(C)C(=O)C(C(CCCCCC(=O)O)c2ccccc2)=C(C)C1=O (centres undefined) | active: 16.8 µM | – |
| Cc1c2cnn(CC(=O)N3CCN(c4ccccc4)CC3)c(=O)c2c(C)n1Cc1ccccc1Cl | inconclusive [inhibitor, single point] | – |
| COC(=O)c1ccc2nc(-c3ccc(OC)c(OC)c3)c(Cc3cccc(F)c3)n2c1 | active: 11.6 µM | – |
| O=C(CSc1ccccn1)N1CCOCC1 | inactive | – |
| Cn1cc(-c2nc3cnc(N4CCNCC4)nc3n(C3CC3)c2=O)c2ccccc21 | active: 13 µM | – |
